# Measured values: ChEMBL document CHEMBL4888484, “Replenishing the malaria drug discovery pipeline: Screening and hit evaluation of the MMV Hit Generation Library 1 (HGL1) against asexual blood stage Plasmodium falciparum ,using a nano luciferase reporter read-out” (2022)
# The campaign covered roughly 150,000 compounds. About 540 (0.36%) showed an effect of 50% or more. Some of the results follow.
# Test system: Plasmodium falciparum
# Experiment: Primary screen in NF54 nanoGlo assay, in single point, at 2uM, 72h; a lower Z score goes with more inhibition
# Assay type: functional, Erythrocyte
# Conditions: timepoint 72 hour
SMILES,% Inhibition,Z score
CC(=O)N1CCCN(c2cc(-c3ccccc3)nc3ncnn23)CC1,-37%,4.4
Cn1c(C2CCC2)nc2cc(C(=O)NC(C)(C)C)cc(NC(=O)[C@@H]3CCCO3)c21,-10%,1.91
CC(C)c1nnc(Cn2cc(C#N)cn2)n1C,-8%,0.94
O=S(=O)(c1c(F)cccc1F)N1CCCCCC1,-18%,2.31
CC(C)c1cccc2sc(N(C[C@H]3CCCO3)C(=O)Cc3ccc4c(c3)OCO4)nc12,-7%,0.83
CCCn1cc(-c2ccnc(NCCC3(O)CCN(C)CC3)n2)c(C)n1,-10%,1.96
O=C1CN(c2ccc(C(=O)N3CCC(c4nc5cc(F)ccc5[nH]4)CC3)cc2)C(=O)N1,-2%,0.34
CCC(=O)N1CCC(Nc2cccc(-c3nc(C4CC4)n[nH]3)c2)CC1,36%,-5.25
Cc1cc(Br)c2c(c1)CN(c1cncc(C(N)=O)n1)CC2,1%,-0.08
Cc1[nH][nH]c(=O)c1Cc1nc(CCc2ccccc2)nn1-c1ccc(F)cc1,-12%,1.81
CN(C(=O)c1oc2ccccc2c1Cn1cccn1)C1(CN)CCC1,15%,-1.85
Cc1cc(=O)n2c3ccccc3n(C)c2n1,-2%,0.35
CCNC(=O)c1cc(CNCC[C@H](C)c2ccc(C)o2)cc(NC(=O)c2ccccn2)c1,-12%,1.56
O=C(N[C@H]1CCN2C(=O)c3cc(/C=C/c4ccccc4)ccc3NC(=O)[C@H]12)c1cnccn1,0%,0
O=C1CC[C@@]2(CCCN(C(=O)c3cc(C4CC4)n[nH]3)C2)CN1Cc1cccnc1,0%,0.01
O=C(NC[C@H]1CCCN(Cc2ccco2)C1)c1ccc2nnnn2c1,-4%,0.84
Cn1nc2c(c1S(=O)(=O)N1CC[C@H](c3ncccn3)C1)CCCC2,-4%,0.5
COCC(=O)N1CCOC(CN(CC2CCCO2)C(=O)c2ccc(OC)cc2)C1 (stereo unspecified),-8%,1.51
O=C(NC[C@@H]1CCCN(C(=O)C2CC=CC2)C1)C1CC=CC1,4%,-0.49
CC(CCc1ccccc1F)C(=O)NC1CCCN(CC(N)=O)C1 (stereo unspecified),2%,-0.19
COc1nccn2nc(-c3ccc(C)cc3)cc12,-11%,1.25
Cc1nn(C)c(C)c1CNC(=O)c1ccc(CN2CC[C@@](O)(c3ccccc3)[C@H]3CCCC[C@@H]32)[nH]c1=O,-10%,1.12
Cc1cc(CN2CCN(C(=O)Cn3cnc4ccccc4c3=O)CC2)on1,-1%,0.23
CC1CC(Nc2ncnc3ccccc23)CC(C)O1 (stereo unspecified),-2%,0.42
CC(C)C(C(=O)N(C)[C@@H]1COC[C@H]1O)c1cccnc1 (stereo partly specified),-29%,3.42
O=C(C[C@H]1COCCN1C(=O)CCn1nnc2ccccc21)N1CCCC1,0%,0.01
COCCNC(=O)CCN(CCOC)C(=O)c1cc(-c2cc(C)ccc2C)on1,-5%,0.72

SMILES,% Inhibition,Z score
CN1CCCN(C(=O)C(=O)Nc2ccon2)CC1,-13%,2.18
CC(C)N(CC1CCCCO1)CC(O)C(F)(F)F (stereo unspecified),-3%,0.48
O=C(CC1CC2CCC1C2)NCCCn1cn[nH]c1=O (stereo unspecified),5%,-0.62
Cc1ccc(-c2cc(C(=O)N3CCN(c4ccc(F)cc4)CC3)c(C)[nH]2)cc1,-14%,1.81
COc1cc(=O)n(-c2ccccc2)cc1C(=O)NCCn1nccn1,-6%,0.95
CCC(CC)CN(CCC#N)C(=O)Nc1ccc(C(N)=O)c(Cl)c1,-5%,0.55
CC1(C)CN(CCOc2cccc(S(C)(=O)=O)c2)c2ccccc2O1,-3%,0.52
CCN(C)C1(CNc2nc(OC)cc(OC)n2)CCCC1,-8%,1.17
Cn1c(C2COCCO2)nnc1N1CCOC(c2ccccc2F)C1 (stereo unspecified),6%,-0.84
CC(=O)Nc1nc(C(=O)NCCc2ccc3c(c2)OCO3)cs1,-19%,2.05
CC1CN(C(=O)CCCc2ccc3[nH]c(=O)[nH]c3c2)CC(C)N1 (stereo unspecified),-2%,0.34
CCc1nc(CN(CC(C)C)C(=O)NC(C)(C)C)[nH]c(=O)c1Cc1ccc(OC)cc1,-18%,1.78
CCNc1ccc(C#N)cc1NCCO,-16%,2.34
CN(CC(=O)N(C)Cc1cnc(-c2ccccc2)s1)C(N)=O,-2%,0.38
CC[C@H](NC(=O)CCC(F)(F)F)c1cc(C)ccn1,-16%,2.02
Cc1cc(C)n([C@H]2[C@@H]3OC[C@@H](O3)[C@@H](NCCC(C)(C)C)[C@@H]2O)n1,26%,-2.94
Cn1nc(C2CC2)nc1CC(=O)N1CCc2cc(F)c(F)cc21,-5%,0.68
CC(C)c1ncc(Br)c(C(=O)O)n1,3%,-0.4
CN(CCc1ccccn1)C(=O)NCc1csc(N2CCOCC2)n1,-12%,1.28
CC(C)(C)c1ccc(C(=O)N2C3CCC2CC(Oc2cccnc2)C3)cc1 (stereo unspecified),-4%,0.43
O=C(c1ccc(COc2ccc3c(c2)CCC3)cc1)n1cc(Br)cn1,-3%,0.35
CN1CCCN(c2nc(C(F)(F)F)nc3ccsc23)CC1,-18%,2.59
O=C(c1cnccn1)N1CCC[C@@H]1CS(=O)(=O)c1ccccc1,-9%,1.48
Cc1cnn(C)c1S(=O)(=O)N[C@H]1C[C@H](c2cc(N3CCCC3)ncn2)C1,-2%,0.39
CCCN1C[C@@H]2CC[C@H]1CN(C(=O)c1ccc(-n3nc(C)cc3C)cc1)C2,-21%,2.05
CCC1=C(c2ccc(C)cc2)S(=O)(=O)N=C1N1CCC(C(=O)NCCCc2ccccc2)CC1,-9%,1.6
